Assay results: PubChem BioAssay AID360 (National Center for Advancing Translational Sciences (NCATS), 2006)
About 550 (1.1%) of roughly 48,000 compounds were called active. Not shown: some 4% with an inconclusive outcome. No stated cut-off is given here; in the data, active means potency below about 15 µM; inconclusive means mostly about 16 µM to 33 µM; inactive means weaker than that. The list shows a part of the results.

target: Lysosomal acid glucosylceramidase (Homo sapiens) (UniProt P04062); test: Glucocerebrosidase; settings: purified enzyme, resorufin glucoside fluorescence (screen aimed at inhibitors), 20 min; series mostly up to 77 µM;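 further: the screen sought inhibitors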
Summary of the method: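 Wild-type enzyme at 0.2 nM final in 50mM citric acid/KH2PO4, 10mM sodium taurocholate, 0.01% tween-20, pH 5.9, with resorufin beta-D-glucopyranoside at 30 uM final. Compounds titrated, 20 min at RT, red fluorescence read; AC50 from titration.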
Potency means the concentration at half of the fitted maximal effect.

Sequence of UniProt P04062 (P04062 whole entry, looked up): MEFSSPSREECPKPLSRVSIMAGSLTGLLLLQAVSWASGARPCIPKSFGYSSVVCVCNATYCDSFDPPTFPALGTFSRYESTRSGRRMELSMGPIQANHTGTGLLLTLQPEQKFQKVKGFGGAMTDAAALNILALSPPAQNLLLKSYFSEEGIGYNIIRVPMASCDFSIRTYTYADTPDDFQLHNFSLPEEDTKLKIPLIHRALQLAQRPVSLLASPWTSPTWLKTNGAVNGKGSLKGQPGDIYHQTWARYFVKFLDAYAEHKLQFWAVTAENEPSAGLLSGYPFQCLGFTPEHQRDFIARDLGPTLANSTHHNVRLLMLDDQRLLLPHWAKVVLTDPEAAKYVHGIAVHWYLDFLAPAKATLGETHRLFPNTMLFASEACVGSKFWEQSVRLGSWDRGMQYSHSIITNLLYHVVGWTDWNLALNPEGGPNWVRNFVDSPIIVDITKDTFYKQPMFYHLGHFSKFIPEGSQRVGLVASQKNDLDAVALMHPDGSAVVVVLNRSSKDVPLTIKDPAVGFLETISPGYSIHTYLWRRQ

Potency, inactive:
O=C(CCN1C(=O)c2ccncc2C1=O)Nc1ccc2c(c1)OCCO2 > 76.9 µM
CCN1CCN(c2nc(SC)nc3sc4c(c23)CC(C)(C)OC4)CC1
Cn1c(=O)n(CC(=O)OCc2ccccc2)c(=O)c2c1nc1n2CCCN1C1CCCCC1 > 76.9 µM
Nc1nc(C2CC2)c(Sc2sc(N)nc2C2CC2)s1 > 76.9 µM
CCN(CC)CCSc1nc(O)c(C(C)C)c(=O)[nH]1 > 76.9 µM
CCc1c(C)nc2ncnn2c1N1CCC(C(=O)Nc2cccc(C(C)=O)c2)CC1 > 76.9 µM
O=c1c(-c2ccccc2)c(O)c2cccc3c2n1CCC3 > 76.9 µM
CCOC(=O)c1cnn(-c2nc(C)cc(C)n2)c1N > 76.9 µM
O=C(NCCc1ccc(Cl)cc1)C1CCN(C(=O)c2sccc2-n2cccc2)CC1 > 76.9 µM
C=CCNc1nc(NC(C)(C)CO)nc(OCC)n1 > 76.9 µM
COc1cccc(NC(=O)N(Cc2cc3cc(C)cc(C)c3[nH]c2=O)CC2COCCO2)c1 (stereo not given) > 76.9 µM
CC(C)Cn1cc(C(=O)NCC2CCCO2)c2c3ccccc3n(C)c2c1=O (stereo not given) > 76.9 µM
Cc1ccnc2nc(C(=O)NC3=NCCS3)nn12 > 76.9 µM
C=CCNc1ncnc2c1ncn2C1OC(CO)C(O)C1O (stereo not given) > 76.9 µM
CCOc1ccc(C(=O)N(CN2CCCC2=O)c2ccccc2)cc1 > 76.9 µM
COCCNC(=O)C(OC(=O)CC1Sc2ccccc2NC1=O)c1ccncc1 (stereo not given) > 76.9 µM
O=C(NCC1CCCO1)C1CCCN1C(=O)NC1CCCCC1 (stereo not given) > 76.9 µM
O=C(NCc1cccs1)c1ccccc1C(=O)NCc1cccs1 > 76.9 µM
O=C(O)Cc1ccc(C(=O)c2cccs2)s1 > 76.9 µM
CCCCN1CC(C(=O)NC2CCCCC2)CC1=O (stereo not given) > 76.9 µM
Cn1c(=O)c2c(nc(CN3CCC(C(N)=O)CC3)n2Cc2c(F)cccc2Cl)n(C)c1=O > 76.9 µM
Cc1ccc(C)c(C(=O)c2c(C)nc3sccn23)c1 > 76.9 µM
Cc1ccc(NC(=O)CSc2nnc(NC(=O)CN3CCOCC3)s2)cc1 > 76.9 µM
C/C(N)=C(\C#N)C(=O)NCCc1ccccn1 > 76.9 µM
c1ccc(-c2csc3nnc(SCc4ccc5c(c4)OCCO5)n23)cc1 > 76.9 µM
C=CCSc1nnc(-c2ccccc2NC(=O)CC)c(=O)[nH]1 > 76.9 µM
O=C(OCCNC(=O)c1cc2ccccc2oc1=O)c1cccnc1 > 76.9 µM
Cc1nc(N2CCC3(CC2)OCCO3)c2nnn(Cc3ccccc3F)c2n1 > 76.9 µM
CCOc1ccc(NC(=O)CSc2nnc(-c3ccccn3)n2N)cc1 > 76.9 µM
Cc1ccc(NC(=O)CC2NCCNC2=O)cc1 (stereo not given) > 76.9 µM
COC(=O)c1[nH]c2ccc(F)cc2c1NS(=O)(=O)c1ccc(OC)cc1OC > 76.9 µM
O=C(NC12CC3CC(CC(C3)C1)C2)N1CCC(O)(c2ccc3c(c2)OCO3)CC1 > 76.9 µM
CCc1nn2c(=O)cc(CSc3nc4sc5c(c4c(=O)n3C)CCCC5)nc2s1 > 76.9 µM
CC(C)(C)n1ncc2c(=O)n(CC(=O)Nc3ccccc3)cnc21 > 76.9 µM
COc1cccc(C2C(C#N)=C(N)OC(C(C)(C)C)=C2C#N)c1 (stereo not given)
O=C(CSc1oc(-c2ccc(F)cc2)nc1S(=O)(=O)c1ccc(F)cc1)NCC1CCCO1 (stereo not given) > 76.9 µM
CC(C)NC(=O)CN(C(=O)CCC(=O)Nc1ccccn1)c1ccc(F)c(Cl)c1 > 76.9 µM
N#Cc1ccccc1NC(=O)c1ccccc1OCC(=O)NCc1ccco1 > 76.9 µM
COc1ccc(OC)c(NC(=O)CSc2nnc(CNc3ccc(F)cc3)o2)c1 > 76.9 µM
COC(=O)c1ccccc1NC(=O)CSc1nc2ccccc2c(=O)[nH]1 > 76.9 µM
CC(C)OC(=O)CSc1nnc(Cc2ccccc2)n1Cc1ccco1 > 76.9 µM
COc1ccc(-c2noc(CCC(=O)Nc3cccnc3)n2)cc1OC > 76.9 µM
Cc1ccccc1Cc1c(C)nc2c(C(=O)NCc3ccco3)cnn2c1C > 76.9 µM
Cc1ccc(Cl)c2c1NC(=O)C2(O)CC(=O)c1ccccc1O (stereo not given) > 76.9 µM
Cc1cccc2cc(COC(=O)C(C)(C)C)c(=O)[nH]c12 > 76.9 µM
O=S(=O)(c1ccccc1S(=O)(=O)N1CCCCC1)N1CCCCC1 > 76.9 µM
Cc1ccc2c(c1)CCCN2C(=O)c1ccncc1 > 76.9 µM
COCCNC(=O)c1cc2c(-c3ccccc3F)nn(C)c2s1 > 76.9 µM
CCOC(=O)CCC(=O)NCc1ccc2c(c1)cc(C)n2C > 76.9 µM
CCS(=O)(=O)NCC(c1cccnc1)N1CCN(c2ccc(F)cc2)CC1 (stereo not given) > 76.9 µM
O=C(CCN1C(=O)C2C3C=CC(C3)C2C1=O)NCCc1ccccc1Cl (stereo not given) > 76.9 µM
COc1cc(NC(=O)c2ccc3c(=O)n(Cc4ccco4)c(=S)[nH]c3c2)cc(OC)c1OC > 76.9 µM
Cc1ccc(S(=O)(=O)CCc2nnc(NC(=O)C3CCCO3)s2)cc1 (stereo not given) > 76.9 µM
COc1ccc(C(=O)CSc2nnc(-c3ccc(C)cc3)o2)cc1 > 76.9 µM
O=C(NCCO)c1ccc2c(c1)S(=O)(=O)c1ccccc1C2=O > 76.9 µM
COc1cc(C(=O)Nc2nc3ccccc3[nH]2)cc(OC)c1OC > 76.9 µM
O=C(Nc1nccs1)c1ccc(COc2ccc(Cl)cc2)o1 > 76.9 µM
COC(=O)Cc1c(C)c2ccc(OC(=O)c3ccco3)cc2oc1=O > 76.9 µM
O=C(O)CCCc1nc2ccccc2s1 > 76.9 µM
CSC(=O)CC(=O)NC(=O)c1ccccc1 > 76.9 µM
CC1(C)CC(=O)C(Sc2nnc(-c3ccc(NS(C)(=O)=O)cc3)n2Cc2ccco2)C(=O)C1 > 76.9 µM
COc1ccc(C(C)=O)cc1COC(=O)c1cccc(N(C)C)c1 > 76.9 µM
O=C(NCc1ccc(Cl)cc1)c1cc(-c2ccco2)on1 > 76.9 µM
COCCNC(=O)CN(CC1CCCO1)C(=O)CCC(=O)Nc1ccccn1 (stereo not given) > 76.9 µM
Cc1cccc(NC(=O)C(C)Oc2ccccc2C)n1 (stereo not given) > 76.9 µM
O=C(O)CCCNS(=O)(=O)c1ccc(NCc2ccccc2)c(C(=O)O)c1 > 76.9 µM
CCCc1cc(=O)[nH]c(SCC(=O)c2ccc(S(=O)(=O)N3CCCC3)cc2)n1 > 76.9 µM
CC1=C(C(N)=O)C(c2ccc(C)o2)C(C(N)=O)=C(C)N1 > 76.9 µM
CCOc1ccc(Cc2nc(C)c(CC(=O)N3CCCCC3)c(=O)[nH]2)cc1 > 76.9 µM
Cc1noc(C)c1COC(=O)CCN1c2ccccc2Sc2ccccc21 > 76.9 µM
COC(=O)c1ccccc1NC(=O)c1ccccc1NS(C)(=O)=O > 76.9 µM
Cc1cc(=O)[nH]c(SCn2nnc3ccccc3c2=O)n1 > 76.9 µM
COc1ccc(-c2cc3nc(C4CCN(C(=O)OC(C)(C)C)CC4)c(C(=O)O)cn3n2)cc1 > 76.9 µM
O=C(Nc1ccc(S(=O)(=O)N2CCCc3ccccc32)cc1)C1CCCO1 (stereo not given) > 76.9 µM
O=C(NCCCN1CCOCC1)c1cccs1 > 76.9 µM
COc1ccc(Cl)cc1S(=O)(=O)n1nnc2ccccc21 > 76.9 µM
CC1=C(C(=O)OCC2CCCO2)C(c2ccc(C)o2)C2=C(CC(c3ccc(N(C)C)cc3)CC2=O)N1 (stereo not given) > 76.9 µM
COC(=O)C1=C(C)N(CCc2ccccc2)C(=O)C1 > 76.9 µM
COc1cc2cc(C(c3nnnn3Cc3ccc(F)cc3)N3CCCCCC3)c(=O)[nH]c2cc1OC (stereo not given) > 76.9 µM
O=S(=O)(c1ccc(OCC(O)CN2CCN(c3ccc(F)cc3)CC2)cc1)N1CCOCC1 (stereo not given) > 76.9 µM
COC(=O)c1ccc(NC(=O)CSc2nnc(-c3ccncc3)n2N)cc1 > 76.9 µM
Cc1cc(NC(=O)CSc2nnc(-c3ccco3)o2)no1 > 76.9 µM
COc1ccc(OC(=O)CCCN2C(=O)c3ccccc3C2=O)cc1 > 76.9 µM
COC(=O)COc1cc(C)cc2oc(=O)c(CC(=O)OC)c(C)c12 > 76.9 µM
CCOC(=O)N1CCC(NC(=O)CCN2C(=O)COc3ccccc32)CC1 > 76.9 µM
Cn1c(=O)n(-c2ccccc2)c(=O)c2c3c(sc21)COC(C)(C)C3 > 76.9 µM
O=C(c1ccco1)N(CC1CCCO1)c1nc(-c2ccccc2)cs1 (stereo not given) > 76.9 µM
CCN(CC)S(=O)(=O)N1CCC(C(=O)NC(C)CCc2ccccc2)CC1 (stereo not given) > 76.9 µM
CC1(C)CC(=O)c2sc(N3CCCCC3)nc2C1 > 76.9 µM
COCCCNC(=O)CSc1nc2ccc(N3CCOCC3)cc2c(=O)n1CCc1ccccc1
